Measurements published in PubChem BioAssay AID485294 (National Center for Advancing Translational Sciences (NCATS), 2010).
The campaign covered roughly 370,000 compounds. About 150 (0.041%) were called active. This list was built around the results that the source calls inconclusive (neither active nor inactive); the mix of calls is not that of the screen. The call rests on the fitted dose curve; in most records, active means well fitted inhibition curve with a large enough effect; inconclusive means small, poorly fitted or top-dose-only effect; inactive means flat fitted curve, though single readings scatter. No potency is given beside an inconclusive call; the fits are too rough.

target: Beta-lactamase (Escherichia coli (strain K12)) (UniProt P00811); assay: qHTS Inhibitors of AmpC Beta-Lactamase (assay with detergent); settings: AmpC hydrolysis of nitrocefin, absorbance 480 nm, 0.01% Triton; activity change, negative = inhibition: at 114 µM (top of the series); further: nearly all actives have a fitted effect of over 25% in size;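 on activity change, negative = inhibition: 0% = no-compound wells and -100% = no-enzyme wells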
How it was run: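 20 mM phosphate pH 7.0 + 0.01% (detergent screen) or 0.0001% Triton X-100; 5.3 nM AmpC reagent; cpd preinc 15 min RT; nitrocefin (800 uM stock) to start; A480 q20 s × 4 min; Activity was normalised to no-enzyme and no-compound control wells.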
Potency means the concentration at half of the fitted maximal effect; tags describe the fitted curve by direction and shape.

Sequence of UniProt P00811 (P00811 whole entry, looked up): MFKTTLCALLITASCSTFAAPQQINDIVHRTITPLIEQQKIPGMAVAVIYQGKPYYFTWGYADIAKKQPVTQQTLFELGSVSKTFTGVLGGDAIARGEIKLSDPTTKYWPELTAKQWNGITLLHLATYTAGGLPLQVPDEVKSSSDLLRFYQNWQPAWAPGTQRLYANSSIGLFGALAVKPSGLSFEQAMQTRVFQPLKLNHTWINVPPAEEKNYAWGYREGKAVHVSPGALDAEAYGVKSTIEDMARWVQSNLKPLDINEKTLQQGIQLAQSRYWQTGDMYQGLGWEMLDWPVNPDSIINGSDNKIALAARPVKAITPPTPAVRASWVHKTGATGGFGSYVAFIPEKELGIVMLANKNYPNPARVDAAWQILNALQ

Row | Compound | Potency | activity change, negative = inhibition
1 | COc1ccc(NCc2nnc(SCC(=O)Nc3cccc(C)c3)o2)cc1 | inconclusive [inhibitor, partial curve, poor fit] | 
2 | Nc1nc2ccccc2n1/N=C/c1ccc([N+](=O)[O-])s1 | inconclusive [inhibitor, single point] | 
3 | ONC(=Nc1ccc(Cl)cc1)c1ccc(Cl)cc1 | inconclusive [inhibitor, partial curve] | 
4 | COC(=O)Cc1c(O)ccn(Cc2ccc(F)cc2)c1=O | inconclusive [inhibitor, single point] | 
5 | Cc1ccc(C)c(N2CCN(C(=S)NC3CCCCC3)CC2)c1 | inconclusive [inhibitor, full curve] | 
6 | CCN1C(=O)[C@@H]2[C@@H](c3ccc(SC4CCCCC4)cc3)N3CCCC[C@@]3(C(=O)OC)[C@@H]2C1=O | inconclusive [inhibitor, full curve] | 
7 | CCOc1ccc(Oc2ccccc2NC(=O)C2=COCCO2)cc1 | inconclusive [inhibitor, full curve] | 
8 | Cc1ccc(-c2csc3nnc(SCC(=O)NCc4ccc5c(c4)OCO5)n23)cc1 | inconclusive [inhibitor, full curve, poor fit] | 
9 | Cn1c(=O)c2c(nc(SC3C(=O)CC(C)(C)CC3=O)n2C)n(C)c1=O | inconclusive [inhibitor, partial curve, poor fit] | 
10 | c1ccc2oc(SCc3cn4ccsc4n3)nc2c1 | inconclusive [inhibitor, partial curve, poor fit] | 
11 | O=C(Cn1c(=S)[nH]c2ccccc2c1=O)N1CCN(c2ccc(F)cc2)CC1 |  | inactive: 1.47%
12 | O=C(COc1ccc(S(=O)(=O)N2CCCC2)cc1)NCc1cccnc1 | inconclusive [inhibitor, partial curve, poor fit] | 
13 | CC(/C=N/NC(=O)CSc1nc2ccccc2n1C)=C\c1ccco1 |  | inactive: -1.53%
14 | CCOc1ccc2nc(SCC#N)c(C#N)cc2c1 |  | inactive: -1.76%
15 | OC[C@H]1O[C@@H](n2cnc3cc(Cl)c(Cl)cc32)[C@H](O)[C@@H]1O | inconclusive [inhibitor, full curve, poor fit] | 
16 | S=C(NCCC(c1ccccc1)c1ccccc1)Nc1cccc(Cl)c1 | inconclusive [inhibitor, full curve, poor fit] | 
17 | Cc1ccc(C2Nc3ccccc3-n3c(-c4ccccc4)c4c(=O)n(C)c(=O)n(C)c4c32)cc1 (configuration not stated) |  | inactive: 31.1%
18 | COc1cc(C(=O)NCCN2CCN(C(=O)c3cc(OC)c(OC)c(OC)c3)CC2)cc(OC)c1OC | inconclusive [inhibitor, single point] | 
19 | Cc1cc2ccccc2n1CCNC(=O)Cc1cccc2ccccc12 | inconclusive [inhibitor, full curve, poor fit] | 
20 | O=C(Nc1cccnc1Cl)c1cc2ccccc2o1 |  | inactive: -6%
21 | O=c1cc[nH]c2c(C(F)(F)F)cccc12 | inconclusive [inhibitor, single point] | 
22 | CCC(C(=O)N/N=C(\C)c1cccnc1)c1ccccc1 (configuration not stated) | inconclusive [inhibitor, partial curve] | 
23 | Cc1nc(N)sc1Cc1ccc2c(c1)OCO2 | inconclusive [inhibitor, full curve, poor fit] | 

Row | Compound | Potency | activity change, negative = inhibition
24 | CCC1(CC)NC(=O)N(CC(=O)NC(=O)NCc2ccccc2)C1=O |  | inactive: 1.13%
25 | COC(=O)c1c(=O)n(O)c2ccc(OC)cc2[n+]1[O-] | inconclusive [inhibitor, full curve, poor fit] | 
26 | CCc1ccccc1NC(=O)CSc1ncc2c(n1)-c1ccccc1N(C)S2(=O)=O |  | inactive: -1.86%
27 | CCOC(=O)c1c(C)c(-c2ccccc2)n(CC(=O)N2CCCC2)c1C | inconclusive [inhibitor, partial curve, poor fit] | 
28 | O=C(COc1ccccc1Cl)NNC(=O)c1ccc2nc[nH]c2c1 | inconclusive [inhibitor, full curve, poor fit] | 
29 | O=C(N/N=C/C(Cl)=C\c1ccccc1)c1ccco1 |  | inactive: -4.66%
30 | CCC(=O)Nc1ccc(S(=O)(=O)NCc2cccn2Cc2cccc(C)c2)cc1 | inconclusive [inhibitor, single point] | 
31 | CCN(CC)CCNC(=S)Nc1ccc2nc(N3CCN(CC)CC3)cc(C)c2c1 |  | inactive: 1.06%
32 | S=C(NCC1CCCO1)NC12CC3CC(CC(C3)C1)C2 (configuration not stated) | inconclusive [inhibitor, partial curve, poor fit] | 
33 | Cc1ccc(S(=O)(=O)N(CC(=O)NCc2ccco2)Cc2ccc(F)cc2)cc1 | inconclusive [inhibitor, full curve] | 
34 | CCOc1ccc(-c2cc(C)n3nc(C(=O)Nc4cc(Cl)ccc4O)cc3n2)cc1 | inconclusive [inhibitor, single point] | 
35 | COc1cccc(NC(=O)Cn2c(=O)n(Cc3nc(-c4ccccc4)no3)c(=O)c3ccccc32)c1 |  | inactive: 15%
36 | CC(C)CN1CCC(=O)N(CCSc2ccccc2)CC1 | inconclusive [inhibitor, full curve, poor fit] | 
37 | C(=N\Nc1cc(N2CCCCC2)ncn1)/c1ccco1 | inconclusive [inhibitor, full curve, poor fit] | 
38 | Cc1ccccc1C[n+]1cccc2ccccc21 |  | inactive: -5.43%
39 | COc1ccc(C(=O)c2ccc(OC)c(Br)c2)cc1Br | inconclusive [inhibitor, full curve, poor fit] | 
40 | Cc1ccc2cccc(NC(=O)c3ccc(-c4ccc(Cl)cc4Cl)o3)c2n1 |  | inactive: -4.71%
41 | COc1ccc(N2C(=O)CCC(C(=O)O)C2c2ccc(F)cc2)cc1 (configuration not stated) |  | inactive: 3.54%
42 | COc1ccc([N+](=O)[O-])cc1NCC(=O)Nc1cccc(S(=O)(=O)N2CCCC2)c1 | inconclusive [inhibitor, full curve, poor fit] | 
43 | O=C(OCc1cccc(Cl)c1)c1cc(S(=O)(=O)N2CCCCC2)ccc1N1CCOCC1 | inconclusive [inhibitor, full curve] | 
44 | O=S(=O)(Nc1cccc(-c2cn3cccnc3n2)c1)c1ccc(-c2ccccc2)cc1 | inconclusive [inhibitor, full curve, poor fit] | 
45 | COc1ccc(C(=O)Nc2cccc(-c3ccc(N4CCOCC4)nn3)c2)cc1 |  | inactive: -12%
46 | Cc1cc(C)n2cc(CSc3ccc(Br)cc3)nc2n1 |  | inactive: -15.2%

Row | Compound | Potency | activity change, negative = inhibition
47 | COc1ccc2cnn(-c3ccc(C)cc3)c(=O)c2c1OC | inconclusive [inhibitor, partial curve, poor fit] | 
48 | CCN(C(=O)Cc1cccs1)c1nnc(-c2cccnc2)s1 |  | inactive: -3.44%
49 | O=C1C=CC(=O)N1N(c1ccccc1)c1ccccc1 | inconclusive [inhibitor, partial curve, poor fit] | 
50 | Cc1ccc(NC(=O)C2(S(=O)(=O)c3ccc(Cl)cc3)CC2)cc1 | inconclusive [inhibitor, full curve, poor fit] | 
51 | Cc1cccc(N2C(=O)NC(=O)/C(=C/c3ccc([N+](=O)[O-])o3)C2=O)c1 |  | inactive: 3.33%
52 | Cc1cccc(NC(=O)NNC(=O)c2c(Cl)c(C)nn2C)c1 | inconclusive [inhibitor, partial curve, poor fit] | 
53 | CC1(C)Cc2ccccc2-c2nnc(-c3cccc(O)c3)n21 | inconclusive [inhibitor, full curve, poor fit] | 
54 | COc1cccc(NC(=O)CN(C)C(=O)c2ccc(COc3ccccc3)cc2)c1 | inconclusive [inhibitor, full curve, poor fit] | 
55 | Cc1ccc(NC(=O)[C@H](CSCc2ccccc2)N2Cc3ccccc3C2=O)cc1 |  | inactive: 4.88%
56 | CC(C(=O)NCc1ccccc1)N(CCN1CCOCC1)C(=O)c1snc(C(N)=O)c1N (configuration not stated) | inconclusive [inhibitor, full curve, poor fit] | 
57 | CC(OC(=O)/C=C/c1ccco1)C(=O)Nc1cccc([N+](=O)[O-])c1 (configuration not stated) |  | inactive: 5.26%
58 | COc1cccc(-c2csc(N3CCN(Cc4ccccc4)CC3)n2)c1 | inconclusive [inhibitor, full curve, poor fit] | 
59 | COC(=O)[C@H](Cc1ccccc1)NC(=O)N1CCCCC1C (some centres not stated) | inconclusive [inhibitor, full curve, poor fit] | 
60 | Clc1ccc(C2=Nn3c(nnc3-c3n[nH]c4c3CCC4)SC2)cc1 | inconclusive [inhibitor, full curve, poor fit] | 
61 | COc1cc(C(N)=O)cc(Br)c1OCc1ccccc1 | inconclusive [inhibitor, partial curve, poor fit] | 
62 | COc1ccc2oc(C(=O)OCC(=O)N3CCC(C)CC3)c(C)c2c1 |  | inactive: -13.9%
63 | Cc1c(C(O)CN2CCN(Cc3ccc4c(c3)OCO4)CC2)c2ccccc2n1C (configuration not stated) | inconclusive [inhibitor, full curve, poor fit] | 
64 | Cc1ccccc1NC(=O)COC(=O)CNC(=O)c1sc2ccccc2c1Cl | inconclusive [inhibitor, full curve, poor fit] | 
65 | Cc1ccc2c(c1)N(CC(=O)N(Cc1ccc3c(c1)OCO3)CC1CCCO1)C(=O)C(C)O2 (configuration not stated) | inconclusive [inhibitor, full curve, poor fit] | 
66 | CSc1ccc(S(=O)(=O)NCC(=O)OCC(=O)NCC2CCCO2)cc1[N+](=O)[O-] (configuration not stated) | inconclusive [inhibitor, full curve, poor fit] | 
67 | COc1cc(NC(=S)N2CCN(C/C=C/c3ccccc3)CC2)cc(OC)c1 | inconclusive [inhibitor, partial curve] | 
